Source: the BET-seq Pho4 binding data (Le et al. 2018)
This is one part of the list. The energies were worked out here from pooled read counts, against the library average; single values are noisy.

Biological target: T1, Pho4 (S. cerevisiae) (UniProt P07270)
T1 sequence: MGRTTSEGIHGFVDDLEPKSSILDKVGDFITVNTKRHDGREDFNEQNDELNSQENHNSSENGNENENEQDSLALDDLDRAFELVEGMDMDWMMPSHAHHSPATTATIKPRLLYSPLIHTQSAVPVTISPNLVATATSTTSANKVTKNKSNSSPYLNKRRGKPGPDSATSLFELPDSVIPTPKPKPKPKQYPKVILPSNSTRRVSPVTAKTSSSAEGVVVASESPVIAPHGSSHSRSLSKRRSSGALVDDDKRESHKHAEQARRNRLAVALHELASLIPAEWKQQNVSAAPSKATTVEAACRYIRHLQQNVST
Experiment: relative binding free energy (BET-seq); higher = weaker binding
Conditions: reference: library average

Sequence | relative binding free energy
GTATGCACGTGCGGTG | -0.01 kcal/mol
GGAGGCACGTGGCGAA | -0.2 kcal/mol
GGTGGCACGTGGGTCG | -0.19 kcal/mol
GGCGTCACGTGTAAGA | 0.27 kcal/mol
GTACTCACGTGTGTAG | 0.14 kcal/mol
GTGTACACGTGTTGAG | 0.15 kcal/mol
GTGTACACGTGCTTTT | 0.08 kcal/mol
CGGGGCACGTGCGTAG | -0.23 kcal/mol
TATATCACGTGAAGTA | 0.32 kcal/mol
ATGGGCACGTGATGGA | 0 kcal/mol
AGGTTCACGTGGCCAT | 0.35 kcal/mol
AGAGTCACGTGGGATG | 0.04 kcal/mol
TTATGCACGTGGGCTA | -0.13 kcal/mol
GTAGTCACGTGGAACG | 0.26 kcal/mol
CTCGACACGTGTGGGT | -0.03 kcal/mol
TTTCCCACGTGGTGTA | -0.01 kcal/mol
ACTGACACGTGTTGGG | 0.05 kcal/mol
TGAGGCACGTGTAGAA | -0.12 kcal/mol
CTAGTCACGTGGTTTG | 0.09 kcal/mol
GGAACCACGTGTTTTG | 0.11 kcal/mol
GTCGGCACGTGTTTTC | 0.13 kcal/mol
GAGAGCACGTGTTTAG | -0.12 kcal/mol
TGACGCACGTGGTGTG | -0.31 kcal/mol

Sequence | relative binding free energy
TTCAGCACGTGTGGAT | -0.04 kcal/mol
GTTGACACGTGGTATG | -0.03 kcal/mol
AAGGTCACGTGTTAGG | 0.02 kcal/mol
TAGATCACGTGGTGTA | 0.07 kcal/mol
GTGACCACGTGGGGGT | -0.24 kcal/mol
TTCGACACGTGTTTGT | 0.09 kcal/mol
GGTGTCACGTGGGGCG | -0.03 kcal/mol
AAAAGCACGTGAGAGG | 0.25 kcal/mol
GAAGGCACGTGGAAGT | -0.12 kcal/mol
AGTGTCACGTGAGGCA | 0.13 kcal/mol
GGAATCACGTGTCGGT | 0.23 kcal/mol
GGAGTCACGTGGGACA | 0.01 kcal/mol
CTTGACACGTGGTGCG | -0.02 kcal/mol
TGCGGCACGTGGGTGA | -0.27 kcal/mol
GGTATCACGTGTGTGC | 0.24 kcal/mol
TCTATCACGTGTAATG | 0.31 kcal/mol
TATATCACGTGTAAGC | 0.23 kcal/mol
TGGAGCACGTGCTCGG | -0.16 kcal/mol
GAGATCACGTGATTGA | 0.39 kcal/mol
TCGTTCACGTGCGTGT | 0.03 kcal/mol
CTTGACACGTGTGCGG | 0.09 kcal/mol
ATGTCCACGTGGCGTT | -0.06 kcal/mol
CGGATCACGTGCGTGG | 0.04 kcal/mol

Sequence | relative binding free energy
TTTGTCACGTGTACTG | 0.06 kcal/mol
GATCGCACGTGGTCGG | -0.02 kcal/mol
GTAAACACGTGTGAGT | 0.04 kcal/mol
CGTTTCACGTGCAGTT | 0.24 kcal/mol
GCTTTCACGTGCTTGG | 0.2 kcal/mol
ACTTGCACGTGATTAT | 0.13 kcal/mol
ATTTTCACGTGGGTTC | 0.27 kcal/mol
ATGCACACGTGGTGTT | 0.01 kcal/mol
GATATCACGTGTGGGC | 0.17 kcal/mol
GACGTCACGTGCGGGG | 0.11 kcal/mol
AGTTGCACGTGAGTAT | 0.04 kcal/mol
TTGTACACGTGCTAGG | -0.14 kcal/mol
GGTAACACGTGGATGA | 0.05 kcal/mol
TTTTTCACGTGCGGTA | 0.32 kcal/mol
AGGTCCACGTGGCGGG | -0.06 kcal/mol
CTGTGCACGTGGAGCG | -0.09 kcal/mol
GGGCACACGTGTAGGT | 0.24 kcal/mol
GGATTCACGTGGTGTC | 0.31 kcal/mol
CGGTTCACGTGGGTAG | 0.11 kcal/mol
GCGTGCACGTGTTTTG | 0.02 kcal/mol
ATTTGCACGTGGAAAT | 0.06 kcal/mol
TTGGGCACGTGGATAG | -0.07 kcal/mol
AGTCACACGTGCTGTG | 0.14 kcal/mol

Sequence | relative binding free energy
GGTTTCACGTGCAATT | 0.29 kcal/mol
TTAGGCACGTGAGATG | 0.08 kcal/mol
AATGGCACGTGCTGTG | -0.18 kcal/mol
CGTAGCACGTGGTCAT | 0.02 kcal/mol
AGCGACACGTGTGGTA | -0.01 kcal/mol
TGTGACACGTGTGTGC | -0.05 kcal/mol
TGTCTCACGTGGAGGC | 0.22 kcal/mol
ATTTACACGTGTTTGG | 0.06 kcal/mol
ACTGGCACGTGTAGTA | 0.01 kcal/mol
GTGGTCACGTGGAGAG | 0.15 kcal/mol
GGGGCCACGTGATGTA | 0.09 kcal/mol
GTATCCACGTGCTTGT | 0.23 kcal/mol
AATTTCACGTGAAGGT | 0.2 kcal/mol
GTGATCACGTGGATCT | 0.09 kcal/mol
ATTAGCACGTGTGGGT | -0.01 kcal/mol
GGTAGCACGTGGCAGC | -0.12 kcal/mol
GGTTTCACGTGCTTAT | 0.32 kcal/mol
GGGTCCACGTGGGTTT | 0.12 kcal/mol
CGCTTCACGTGATGGG | 0.19 kcal/mol
GCAAACACGTGTAGGG | 0.14 kcal/mol
TGGTGCACGTGGATTT | 0.11 kcal/mol
TATAGCACGTGTGCGA | -0.06 kcal/mol
CAGTTCACGTGTTCGG | 0.5 kcal/mol

Sequence | relative binding free energy
AAATTCACGTGAATTG | 0.4 kcal/mol
GGAGGCACGTGGTAGG | -0.18 kcal/mol
GATGTCACGTGGTTAA | 0.05 kcal/mol
TGTAACACGTGTGTCA | 0.09 kcal/mol
TGGAACACGTGAGCTG | 0.23 kcal/mol
TGGTGCACGTGGGGGT | -0.14 kcal/mol
TATCTCACGTGGTATA | 0.19 kcal/mol
TGAGACACGTGGGTGC | -0.06 kcal/mol
TTGTTCACGTGTAGTC | 0.16 kcal/mol
ATCGGCACGTGGGGAA | -0.08 kcal/mol
AGGGGCACGTGCGCTT | -0.26 kcal/mol
GAGACCACGTGGTTGT | -0.01 kcal/mol
TTAGTCACGTGTTATG | 0.23 kcal/mol
AGCGCCACGTGGGGTT | -0.33 kcal/mol
TATGGCACGTGTGGGC | -0.08 kcal/mol
AGGGACACGTGGAGAT | -0.04 kcal/mol
GTATTCACGTGGAGTC | 0.25 kcal/mol
TGTATCACGTGGTGGA | 0.09 kcal/mol
CTTTTCACGTGTGTGG | 0.2 kcal/mol
CGTGTCACGTGAAGTA | 0.25 kcal/mol
TGAGGCACGTGGCTCG | -0.15 kcal/mol
GGTGTCACGTGTTTGG | 0.24 kcal/mol
GAAGTCACGTGTTGGC | 0.27 kcal/mol
